# Reference: PubChem BioAssay (NCATS)
# The inconclusive results got no clear call from the source; some entries with a clear call stand among them for comparison. A potency beside an inconclusive call is a rough fit, not a confirmed value. Active and inactive are the calls of the source. Calls follow the shape of the dose curve; as a rule, active = well fitted curve in the direction sought with a large enough effect; inconclusive = small, poorly fitted or top-dose-only effect, or another doubt; inactive = no such curve, though single readings can be large; an effect the other way counts as inactive or inconclusive.
# How the values were obtained:
# [1] = qHTS of pediatric cancer cell lines to identify multiple opportunities for drug repurposing: Primary screen for BT-37 cells (AID 1347094)
# Procedure, shortened: (§1)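 Cells plated at 500-1,000/well in growth medium, compounds added after 5 h. MIPE tested at 11 points (from 0.78 nM), NPC at 8 points (from 0.59 nM). CellTiter-Glo luminescence after 48 h; concentration-response curves from primary screen.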
# [2] = qHTS of pediatric cancer cell lines to identify multiple opportunities for drug repurposing: Primary screen for U-2 OS cells (AID 1347096); also: nearly all actives have a fitted effect of over 50% in size
# Procedure, shortened: (§2)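 Viability after 48 h compound treatment at 37C, 500-1,000 cells/well, read as ATP luminescence with CellTiter-Glo. Primary screens used 11-point (MIPE, 0.78 nM-46 µM) or 8-point (NPC, 0.59 nM-46 µM) final concentrations; follow-up screens used 11-point dilutions.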
# [3] = qHTS of pediatric cancer cell lines to identify multiple opportunities for drug repurposing: Primary screen for LAN-5 cells (AID 1347100); settings: LAN-5 neuroblastoma viability, CellTiter-Glo luminescence, 48 h; activity change, negative = cytotoxic: at 46 µM (top of the series) unless noted
# Procedure, shortened: as §2
# [4] = qHTS of pediatric cancer cell lines to identify multiple opportunities for drug repurposing: Primary screen for BT-12 cells (AID 1347101); also: nearly all actives have a fitted effect of over 25% in size
# Procedure, shortened: (§3)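 Cells (500-1,000/well) rested 5 h, then received compounds for 48 h; metabolically active cells were measured by CellTiter-Glo luminescence. Final concentrations spanned up to 46 µM (MIPE, 11-point) or 0.59 nM-46 µM (NPC, 8-point) in primary screens, 11-point in follow-ups.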
# [5] = qHTS of pediatric cancer cell lines to identify multiple opportunities for drug repurposing: Primary screen for Saos-2 cells (AID 1347097); settings: Saos-2 viability, CellTiter-Glo ATP luminescence, 48 h; activity change, negative = cytotoxic: at 46 µM (top of the series) unless noted; also: nearly all actives have a fitted effect of over 40% in size
# Procedure, shortened: as §1
# [6] = qHTS of pediatric cancer cell lines to identify multiple opportunities for drug repurposing: Primary screen for NB1643 cells (AID 1347099); also: nearly all actives have a fitted effect of over 50% in size
# Procedure, shortened: as §1
# [7] = qHTS of pediatric cancer cell lines to identify multiple opportunities for drug repurposing: Primary screen for Rh18 cells (AID 1347102); also: nearly all actives have a fitted effect of over 65% in size
# Procedure, shortened: as §2
# [8] = qHTS of pediatric cancer cell lines to identify multiple opportunities for drug repurposing: Primary screen for SK-N-SH cells (AID 1347098); settings: SK-N-SH viability, CellTiter-Glo luminescence, 48 h; activity change, negative = cytotoxic: at 57 µM (top of the series) unless noted; also: nearly all actives have a fitted effect of over 65% in size;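 as to activity change, negative = cytotoxic: DMSO served as neutral control and bortezomib at 2.3 µM as positive control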
# Procedure, shortened: as §3
# Potency is read from the fitted curve at half-maximal effect; tags tell the direction and shape of the fitted curve.
SMILES,Potency [1],Potency [2],Potency [3],Potency [4],Potency [5],Potency [6],Potency [7],Potency [8]
O=C(NC(=O)c1c(F)cccc1F)Nc1cc(Cl)c(OC(F)(F)C(F)C(F)(F)F)cc1Cl (stereo not given),"inconclusive: 15.5 µM [cytotoxic, partial curve, poor fit]","inconclusive: 16.8 µM [cytotoxic, partial curve, poor fit]","inconclusive: 4.22 µM [cytotoxic, partial curve]","inconclusive: 13.8 µM [cytotoxic, partial curve]",,,,
CCCCC1C(=O)NC(=O)N(C2CCCCC2)C1=O (stereo not given),inactive,,,,inactive,,,
O=c1[nH]c2ccc(Cl)cc2c(N[C@@H]2CN3CCC2CC3)c1-c1nc2ccccc2[nH]1,active: 5.44 µM,active: 0.187 µM,,active: 15.3 µM,,active: 0.526 µM,"inconclusive: 3.72 µM [cytotoxic, full curve]",
CCCCCC[C@H]1C(=O)O[C@H](C)[C@H](NC(=O)c2cccc(NC=O)c2O)C(=O)O[C@@H](C)[C@@H]1OC(=O)CC(C)C,"inconclusive: 0.0432 µM [cytotoxic, full curve, poor fit]",,"inconclusive: 23.5 µM [cytotoxic, partial curve, poor fit]",,active: 11.8 µM,active: 23.5 µM,"inconclusive: 6.62 µM [cytotoxic, partial curve]",
O=C(Nc1ccncc1)C(=O)c1cn(Cc2ccc(Cl)cc2)c2ccccc12,active: 0.217 µM,"inconclusive: 1.18 µM [cytotoxic, partial curve, poor fit]","inconclusive: 0.0372 µM [cytotoxic, full curve]",,,"inconclusive: 0.166 µM [cytotoxic, full curve]",,"inconclusive: 0.0171 µM [cytotoxic, full curve]"
COc1c2c(cc3c1OCO3)CCN(C)C2,inactive,,,,"inconclusive: 18.8 µM [cytotoxic, partial curve, poor fit]",,inactive,
O=c1[nH]c2ccccc2n1C1CCN(Cc2ccc(-c3[nH]c4cc5ncnc5cc4nc3-c3ccccc3)cc2)CC1,"inconclusive: 21.7 µM [cytotoxic, partial curve]","inconclusive: 2.96 µM [cytotoxic, full curve, poor fit]",,"inconclusive: 21.7 µM [cytotoxic, partial curve]",,,"inconclusive: 2.96 µM [cytotoxic, partial curve, poor fit]",
CCC(=O)C(CCN(C)C)(c1ccccc1)c1ccccc1,inactive,inactive,,"inconclusive: 17.4 µM [cytotoxic, partial curve]",inactive,inactive,"inconclusive: 11.9 µM [cytotoxic, partial curve, poor fit]","inconclusive: 8.64 µM [cytotoxic, partial curve, poor fit]"
COc1cc([C@@H]2c3cc4c(cc3[C@@H](O)C3COC(=O)C32)OCO4)cc(OC)c1O (stereo not given in full),"inconclusive: 0.0863 µM [cytotoxic, full curve]",,,"inconclusive: 0.0685 µM [cytotoxic, full curve]",active: 0.0209 µM,,,"inconclusive: 0.0048 µM [cytotoxic, full curve, poor fit]"
CO[C@H]1CCC(O[C@H]2C[C@H]([C@]3(C)CC[C@]4(C[C@H](O)[C@@H](C)[C@@H]([C@@H](C)C=C(C)C(=O)[C@H](C)C[C@H](C)C(=O)O)O4)O3)O[C@]3(O[C@@H]([C@H]4O[C@@](O)(CO)[C@H](C)C[C@H]4C)C[C@H]3C)[C@H]2C)O[C@H]1C (stereo not given in full),active: 0.344 µM,"inconclusive: 0.935 µM [cytotoxic, full curve]",,,active: 2.64 µM,active: 1.05 µM,active: 2.96 µM,
CC(Cc1ccc2c(c1)OCO2)NO (stereo not given),inactive,inactive,,inactive,,,,
C[C@@H]1O[C@@H](O[C@@H]2C=C3CC[C@@H]4[C@@H](CC[C@]5(C)[C@H](c6ccc(=O)oc6)CC[C@@]45O)[C@@]3(C)CC2)[C@H](O)[C@H](O)[C@H]1O,active: 0.0097 µM,active: 0.0235 µM,,,,,"inconclusive: 0.0332 µM [cytotoxic, full curve]",
C=CC[C@]1(O)CC[C@H]2[C@@H]3CCC4=CC(=O)CCC4=C3C=C[C@@]21C,"inconclusive: 34.7 µM [cytotoxic, partial curve, poor fit]",inactive,,"inconclusive: 27.6 µM [cytotoxic, single point]",,"inconclusive: 9.44 µM [cytotoxic, partial curve, poor fit]",,inactive
